This is an account of results in the supplement of paper PMC3334620.

Over roughly 33,000 sequences, “E-score (-0.5 to 0.5)” has its median near -0.011; the highest 2% begin near 0.28. The list shows a part of the results.

The target of the assay is T1, Gcr1 (UniProt P07261).
T1 sequence: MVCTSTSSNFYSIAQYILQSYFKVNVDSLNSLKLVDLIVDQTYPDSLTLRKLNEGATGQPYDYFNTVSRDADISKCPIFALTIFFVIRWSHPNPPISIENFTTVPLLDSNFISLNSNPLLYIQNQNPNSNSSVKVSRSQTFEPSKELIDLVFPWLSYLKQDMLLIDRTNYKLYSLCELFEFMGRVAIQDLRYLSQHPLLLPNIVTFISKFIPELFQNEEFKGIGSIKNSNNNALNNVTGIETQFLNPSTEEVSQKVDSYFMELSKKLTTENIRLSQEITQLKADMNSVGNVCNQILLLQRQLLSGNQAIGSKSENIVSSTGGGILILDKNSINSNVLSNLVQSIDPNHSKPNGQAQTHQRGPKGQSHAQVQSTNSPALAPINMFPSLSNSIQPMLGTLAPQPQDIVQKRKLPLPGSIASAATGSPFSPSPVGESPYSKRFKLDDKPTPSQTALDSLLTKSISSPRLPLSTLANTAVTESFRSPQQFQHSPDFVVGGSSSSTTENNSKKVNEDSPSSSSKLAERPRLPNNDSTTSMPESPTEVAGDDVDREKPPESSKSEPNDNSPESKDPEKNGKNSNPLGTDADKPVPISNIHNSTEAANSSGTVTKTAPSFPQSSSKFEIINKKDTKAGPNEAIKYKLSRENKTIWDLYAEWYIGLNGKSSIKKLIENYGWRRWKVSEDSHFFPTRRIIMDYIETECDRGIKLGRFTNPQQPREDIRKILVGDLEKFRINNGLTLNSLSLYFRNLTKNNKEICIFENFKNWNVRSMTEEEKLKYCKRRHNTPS
Put plainly: PBM E-score (8-mer binding enrichment) (E-score (-0.5 to 0.5)); higher = stronger / more preferred TF binding; most listed sequences are background and not binding sites. The conditions noted are these: protein concentration: 100 nM; construct: GST-full length. The method, boiled down: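 PURExpress in vitro transcription/translation supplied GST-tagged yeast transcription factors, either full-length or DNA-binding domain. Applied at about 100-200 nM to universal all-10-mer Agilent arrays double-stranded by primer extension, the bound protein was detected with fluorescent anti-GST. E-scores, modified Wilcoxon-Mann-Whitney statistics, were given by the Universal PBM Analysis Suite to ungapped eight-base words pooled with their reverse complements after masliner normalisation.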
For CTCCGGAG, the “PBM E-score” value was 0.0113.
Then ACGGTCAG, with -0.324; and ACTCTATG, with -0.241; and TGAGGCAA, with 0.0484.
For CCCGTAAC, the “PBM E-score” value came to 0.166.
In the case of AGGAAACG, the “PBM E-score” value is -0.12.
Take GGTGAGAA: the “PBM E-score” value was -0.128.
As for CACTTGCA, the “PBM E-score” value was 0.0925.
For the sequence CAAGGCGA, the “PBM E-score” value is -0.122.
For ACTCGATC, the “PBM E-score” value is -0.211.
Then ACTGTGAA, with 0.0711.
Then ATGCTATC, with 0.00719; and CTAAGTGA, with -0.0333.
As for CAGTTACG, the “PBM E-score” value worked out at 0.0925.
Then TCCAGAAA, with 0.304; and CTCCCGCC, with -0.0803; and ACGTTCTC, with -0.172.
Then AGCAGAGG, with -0.0912; and ATCTGAGG, with 0.00628; and CGACCCAA, with 0.0032.
Consider GAATTGTC, for which the “PBM E-score” value was -0.0452.
With ACTCTTGC, the “PBM E-score” value is -0.123.
Then AGAGTAGG, with -0.119.
Then ATACCCGA, with 0.0208; and GGGGAACA, with -0.0897.
In the case of CGCTTCAC, the “PBM E-score” value was -0.0614.
Then AGCAGTAA, with -0.0937.
Turning to GCATACGC, the “PBM E-score” value was -0.109.
Consider AGGGTCCA, for which the “PBM E-score” value is 0.125.
Consider AGTCAAAT, for which the “PBM E-score” value was -0.0263.
Then ATGATAGG, with -0.0167; and AACCCTCG, with -0.238; and CCTCGCAA, with -0.128.
On to GCGCGCCA, for which the “PBM E-score” value turned out to be 0.0132.
With ACATCTAA, the “PBM E-score” value is 0.00203.
Then TTATTCAA, with 0.0579; and AGGGGCGA, with -0.0394; and GTGGTTTA, with -0.0987.
Then CAGAGCGA, with -0.106; and GAGTGAAC, with -0.0688; and TATCGCAA, with 0.0082.
As to CAGAAGCC, the “PBM E-score” value amounted to 0.306.
Consider CGCCGCGC, for which the “PBM E-score” value came to 0.137.
With AGGGACGG, the “PBM E-score” value is -0.2.
Then CACTATAC, with -0.0375.
For GGAGACAC, the “PBM E-score” value worked out at 0.0498.
Take AATGTGTA: the “PBM E-score” value was -0.0742.
Consider CGAGACAA, for which the “PBM E-score” value is -0.137.
Then CCATTCAA, with -0.125; and AGCTAATG, with 0.0122; and ATCGTAAT, with 0.0725.
Then ATACCTGC, with 0.115.
Take CGCTACAC: the “PBM E-score” value was -0.00936.
Then ACTTAACA, with 0.0911.
AGCTCACG: the “PBM E-score” value is -0.14.
Then ACAAAGCA, with 0.0449; and CAAGAACG, with -0.141; and ATGGTTGC, with 0.274.
For the sequence ATGACGTA, the “PBM E-score” value was -0.0777.
Regarding ATCAAATA, the “PBM E-score” value was 0.037.
Then ATGTTTTC, with 0.00559.
Then GATGTGCA, with -0.128; and AGGAACAG, with -0.0502.
Consider CTACAGAC, for which the “PBM E-score” value was -0.0198.
Then ATTCTAGG, with 0.167; and GCAGCGAA, with -0.0362.
Regarding CATTGGCG, the “PBM E-score” value was -0.226.
ATAGTGAC: the “PBM E-score” value is -0.055.
CCTTGTTC: the “PBM E-score” value is 0.0321.
In the case of CACCCAGA, the “PBM E-score” value came out at 0.198.
In the case of ATCCTAAT, the “PBM E-score” value was 0.28.
For the sequence ACCCAGCA, the “PBM E-score” value came to 0.116.
Then ATCATCTA, with -0.0438; and GCCGACGC, with 0.102; and ACTCTCTA, with -0.252.
With AATGTCAG, the “PBM E-score” value was -0.127.
Then CAAAGATC, with 0.0527; and ACTCTCCT, with -0.21; and AGCCAGCG, with -0.203.
Then CGGAGTGA, with -0.0268.
Then CCTAGGCC, with -0.263; and CAAAGGGG, with -0.03; and AGATTCAG, with 0.117.
In the case of AGTTTACC, the “PBM E-score” value is -0.0175.
On to ACAGCATA, for which the “PBM E-score” value came to 0.0467.
Then GACGACAC, with -0.0951.
For the sequence AACAGCCG, the “PBM E-score” value was -0.015.
Then CAGATGAA, with 0.14; and ACCGGCAA, with -0.0101; and CTTTATCA, with -0.0363.
In the case of GCAGCGCA, the “PBM E-score” value amounted to 0.0604.
Then ATACAAGG, with 0.0694; and GCATCTCA, with 0.139; and CAAACAAG, with 0.207.
